According to publication PMC4336329 (PLoS ONE, 2015):
Screen size: about 310,000 compounds; about 2,200 (0.71%) showed an effect of 50% or more. Effects have a minus sign here. Some of the results follow.

target: human ether-à-go-go-related gene (hERG) potassium channel (human, UniProt Q12809); experiment: primary screen, population patch clamp on CHO cells stably expressing hERG
Sequence (Q12809 whole entry, looked up): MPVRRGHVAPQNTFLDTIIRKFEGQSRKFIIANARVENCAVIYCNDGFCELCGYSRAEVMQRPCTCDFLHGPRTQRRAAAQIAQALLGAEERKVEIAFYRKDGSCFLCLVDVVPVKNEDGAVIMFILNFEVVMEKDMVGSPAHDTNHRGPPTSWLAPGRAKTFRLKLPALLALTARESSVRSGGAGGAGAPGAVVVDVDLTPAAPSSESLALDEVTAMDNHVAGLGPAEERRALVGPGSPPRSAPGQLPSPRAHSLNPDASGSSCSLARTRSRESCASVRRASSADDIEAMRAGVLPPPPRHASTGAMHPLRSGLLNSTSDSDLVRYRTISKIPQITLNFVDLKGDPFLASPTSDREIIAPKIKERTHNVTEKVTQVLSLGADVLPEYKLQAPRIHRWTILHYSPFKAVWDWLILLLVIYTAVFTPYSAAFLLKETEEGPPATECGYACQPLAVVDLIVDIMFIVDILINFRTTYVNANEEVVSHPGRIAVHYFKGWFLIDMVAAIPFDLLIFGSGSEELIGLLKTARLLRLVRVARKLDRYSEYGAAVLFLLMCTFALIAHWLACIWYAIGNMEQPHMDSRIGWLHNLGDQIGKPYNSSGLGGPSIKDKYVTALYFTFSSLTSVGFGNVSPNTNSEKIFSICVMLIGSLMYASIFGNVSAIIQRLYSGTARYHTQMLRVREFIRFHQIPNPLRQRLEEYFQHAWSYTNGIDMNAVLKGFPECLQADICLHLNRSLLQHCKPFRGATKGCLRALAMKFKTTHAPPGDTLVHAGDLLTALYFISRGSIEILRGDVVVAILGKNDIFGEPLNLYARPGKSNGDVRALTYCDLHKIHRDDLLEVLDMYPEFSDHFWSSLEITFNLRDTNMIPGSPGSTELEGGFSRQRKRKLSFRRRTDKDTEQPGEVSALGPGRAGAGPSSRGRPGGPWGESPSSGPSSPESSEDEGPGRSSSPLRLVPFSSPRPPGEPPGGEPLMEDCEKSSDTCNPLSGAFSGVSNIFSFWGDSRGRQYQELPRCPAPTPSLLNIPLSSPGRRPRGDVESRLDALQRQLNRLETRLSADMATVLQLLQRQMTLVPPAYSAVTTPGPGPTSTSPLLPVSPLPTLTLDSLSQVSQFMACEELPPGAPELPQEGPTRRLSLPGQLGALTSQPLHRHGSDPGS

Row | SMILES | hERG current change (%, negative = inhibition) at 1uM
1 | COCCn1c(C)cc(C(=O)COC(=O)c2ccc(Cl)c(S(N)(=O)=O)c2)c1C | -0.148%
2 | COc1ccc(CNC(=O)CC(C)c2ccccc2)cc1 (stereo not drawn) | 9.3%
3 | CSc1ccccc1-c1nc(-c2ccncc2)no1 | 14.6%
4 | CCN(CC)c1ccc2cc(C(N)=O)c(=N)oc2c1 | -6.33%
5 | Br.C/C(Sc1nnc(Cc2ccccc2)o1)=C(/O)c1ccccc1 | 5.08%
6 | Cn1ccnc1SCC(=O)Nc1cccc(C(F)(F)F)c1 | 7.12%
7 | COCCN1Cc2cccc(C(=O)Nc3cccc(-c4nc5ccccc5[nH]4)c3)c2C1=O | 9.24%
8 | O=C(CCCOc1ccccc1)Nc1cccc(S(=O)(=O)N2CCCCCC2)c1 | 13.2%
9 | O=C(CC1CCCC1)N1CCN(S(=O)(=O)c2ccc(F)cc2)CC1 | 0.466%
10 | CCOc1ccc2c(c1)c1nnc(SCC(=O)NC3CC3)nc1n2C | -1.34%
11 | Cc1ccccc1NC(=O)Cc1nc(COC(=O)CCNS(=O)(=O)c2ccccc2)cs1 | 3.6%
12 | O=C(Oc1ccc2c(c1)OCC2=O)c1ccccc1 | 13.6%
13 | CCOC(=O)C(C)(C)Sc1nc2c(cnn2-c2ccc(Cl)cc2)c(=O)[nH]1 | 4.97%
14 | CCC(Sc1nc(-c2ccccc2)c(C#N)c(=O)[nH]1)C(=O)Nc1cc(C)on1 (stereo not drawn) | 4.78%
15 | Cl.OC(CN1C2=NCCCN2c2ccccc21)c1ccc(Br)cc1 (stereo not drawn) | -86.2%
16 | CC1Cc2nc(SCC(=O)N3CCOCC3)n(C)c(=O)c2S1 (stereo not drawn) | 10.8%
17 | COc1cc(NC(=O)c2ccccc2)cc(OC)c1 | 7.74%
18 | COc1ccccc1NC(=O)C1=C(C)Nc2nnnn2C1c1cccc(C)c1 (stereo not drawn) | 15.8%
19 | O=C(Nc1ccnn1C1CCN(Cc2ccc(Cl)cc2)CC1)C1CCCC1 | -37.2%
20 | Cn1c(C(=O)OCC(=O)NCc2cccs2)cc2sccc21 | 13%
21 | S=C(Nc1ccccc1)Nc1nccs1 | 16%
22 | CC(C)(C)OC(=O)N[C@@H](Cc1ccccc1)C(=O)NCC1CCC(C(=O)O)CC1 (stereo partly drawn) | 17.2%
23 | CCCNC(=O)C(Cc1ccccc1)NC(=O)c1ccc(C(F)(F)F)cc1 (stereo not drawn) | 16.3%

Row | SMILES | hERG current change (%, negative = inhibition) at 1uM
24 | COc1cc(/C=N/NC(=O)c2nonc2N)cc(OC)c1OC | 12.4%
25 | O=C(CN1CCCCC1)Nc1ccc(Br)cc1C(=O)c1ccccc1Cl | 9.75%
26 | CCn1c(SCC(=O)NNC(=O)c2ccco2)nnc1-c1ccco1 | 11.3%
27 | CC(C)C(=O)N1CCc2cc(-c3csc(N)n3)ccc21 | 3.68%
28 | CC(C)NC(=O)c1ccc(NC(=O)CC2SC(N3CCCC3)=NC2=O)cc1 (stereo not drawn) | 7.79%
29 | Cc1ccc(CSC2=Nc3sccc3C3=NC(=O)CN23)cc1 | -4.69%
30 | Cc1ccc(C(=O)N2CCN(c3ccc(N4CCOCC4)nn3)CC2)cc1 | 11.6%
31 | C/C(=N\Nc1nc2c(s1)CCCC2)c1ccccc1.Cl | -2.17%
32 | O=C(COc1ccc(Cl)cc1)NCCNC(=O)c1ccccn1 | 6.89%
33 | OCC[C@H]1C[C@H](O)[C@@H](O)[C@]2(CCCc3ccccc3O2)O1 | 5.51%
34 | Cl.OC(COc1ccc(Cl)cc1)CN1C2=NCCCN2c2ccccc21 (stereo not drawn) | -82%
35 | Cc1n(Cc2ccccc2)c2ccccc2[n+]1Cc1ccccc1.[Cl-] | 12.1%
36 | O=C(c1cccc(Cl)c1)N1CCC(=O)N(C(CO)Cc2ccccc2)CC1 (stereo not drawn) | 12.8%
37 | Cc1c(NC(=O)c2ccccc2NS(=O)(=O)c2ccc(F)cc2)c(=O)n(-c2ccccc2)n1C | 7.93%
38 | Cc1cc2nnc(SCC(=O)N3C(C)CCCC3C)n2c(N)n1 (stereo not drawn) | 10.6%
39 | COc1ccc(C(c2nnnn2Cc2ccccc2)N2CCN(C(=O)c3ccco3)CC2)cc1 (stereo not drawn) | -0.6%
40 | CC(C)(C)c1ccc(OCCOCCn2cnc3ccccc3c2=O)cc1 | 3.03%
41 | CCOC(=O)c1ccccc1NC(=O)CSc1nnnn1C | -6.87%
42 | Cc1ccc(CN2CCN(Cc3cn[nH]c3C3CCCCC3)CC2CCO)cc1 (stereo not drawn) | -12.3%
43 | Cc1[nH]n2c(=O)cc(Cc3ccccc3)nc2c1C#N | -6.39%
44 | COc1ccc(Cl)cc1C(=O)NNC(=O)CSc1nnnn1C | 14%
45 | OCCc1c[nH]c2ccc(C(F)(F)F)cc12 | 13.5%
